Measurements published in the supplement of paper PMC10126150.
Sequences with one replicate were seen in a single cluster, so their values are uncertain.

Each sequence was assayed on ATP (assay: switch fluorescence ratio, 500 uM ATP over buffer (Cy3 cluster intensity, sum of 5 cycles each) (fold (ratio)); higher = stronger signal-on switching upon ATP binding; sequences stand for … in TCGTCGGCAGCGTCAGATGTGTATAAGAGACAGTTTTTTTTTTTTTTTTTTTTTTTTT…TC). Conditions: aptamer strand: ATP DNA aptamer (quencher-CACCTGGGGGAGTATTGCGGAGGAAGG + anchor), 100 nM annealed; ATP concentration: 500 uM; one replicate.
How it was run: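 Cy3-labelled switching-strand clusters on a modified Illumina MiSeq flow-cell were annealed to 100 nM quencher-labelled ATP aptamer, imaged in selection buffer, then imaged after 15 min with 500 uM ATP at 22 °C. Five buffer/ATP cycles ran, with NaOH stripping and re-annealing between them. The fluorescence ratio is summed target-cycle over summed buffer-cycle Cy3 intensity per cluster, averaged per switch-domain sequence. Clusters outside 100-1000 RFU were excluded.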
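Also: ATP exposure 15 min at 22 °C before imaging.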

Sequence	switch fluorescence ratio
TCTTTCTGAA	0.97
TCTTTGAATA	1.01
TCTTTGAGG	0.995
TCTTTGGGT	1.01
TCTTTTAGTC	0.934
TCTTTTCGAT	1.02
TCTTTTGCGC	1.02
TCTTTTTAGA	1.02
TGAAAGACAG	1
TGAAATCTGG	1
TGAACACTTT	1.03
TGAACCAGAC	1.62
TGAACCATAG	1.01
TGAACGTAAC	1.45
TGAACTACAG	1.02
TGAACTTGCA	0.992
TGAAGAAGAG	1.04
TGAAGAAGC	1.07
TGAAGAGGAG	1.01
TGAAGCAAGG	2.33
TGAAGCAGGT	1.02
TGAAGCCCAT	1.05
TGAAGGTCTA	1
TGAAGTATAT	1.12
TGAATAAAGA	1.01
TGAATACTGG	1.09

Sequence	switch fluorescence ratio
TGAATAGA	0.972
TGAATAGCAA	1.61
TGAATATTG	1.01
TGAATGAACA	1.02
TGAATGGGC	0.977
TGAATTAAC	1.02
TGAATTAGGG	1.03
TGAATTCCGA	1.04
TGACACGCGC	1.04
TGACACTGGA	0.999
TGACAGAGGT	0.971
TGACAGCGAC	1.35
TGACAGGGGC	1.18
TGACATCTGA	0.984
TGACCAAAAG	1
TGACCGATTC	1.04
TGACCTATTA	0.968
TGACCTCTC	1.27
TGACGAGGTA	1.01
TGACGCAGCA	4.25
TGACGCGGTT	1.18
TGACGGTGCA	1
TGACGTACGC	1.98
TGACGTAGCA	1.23
TGACGTAGCG	0.969
TGACTCAGTG	1.05

Sequence	switch fluorescence ratio
TGACTCATTT	1.06
TGACTCCGGA	2.31
TGACTGGGCT	1.04
TGACTGGT	0.986
TGACTTCCTC	2.51
TGACTTCGGT	0.985
TGAGACGGAT	0.988
TGAGACGTTG	0.998
TGAGAGGGCG	0.958
TGAGAGGTTG	0.97
TGAGAGTCGG	1.01
TGAGAGTTGG	1.01
TGAGATAGCA	0.963
TGAGATAGTG	1.01
TGAGCATTGT	1.01
TGAGCCGCTG	0.999
TGAGCCTAGG	1.01
TGAGCGCAAG	1.09
TGAGCGCTTG	1.03
TGAGCGGGGT	0.969
TGAGGAATAT	1
TGAGGAATGA	1.03
TGAGGACTCG	0.988
TGAGGAGATA	1.01
TGAGGCGCAG	0.98
TGAGGCGTAG	0.957

Sequence	switch fluorescence ratio
TGAGGCTGTG	0.991
TGAGGGCAAT	1.92
TGAGGGCATG	0.924
TGAGGGTTC	0.986
TGAGGTAGTT	1.02
TGAGGTCGTG	0.955
TGAGGTCTCA	0.992
TGAGGTGGT	1
TGAGGTTCGG	1.01
TGAGTAAGT	1.02
TGAGTAGAG	1.01
TGAGTAGTGT	0.995
TGAGTCAACG	1.02
TGAGTCAGAG	0.997
TGAGTGATGG	0.963
TGAGTTCTGT	0.94
TGAGTTGAGG	0.988
TGAGTTTGCT	0.993
TGATAAACAC	1.12
TGATAACAGT	1.03
TGATAATGTG	0.993
TGATACAAGA	1.02
TGATAGAAAT	1.01
